From article PMC4336329 (PLoS ONE, 2015)
The whole screen tested about 310,000 compounds, of which about 14,000 (4.5%) showed an effect of 50% or more. The effect is printed as a negative number. This is one part of the list.

biological target: human ether-à-go-go-related gene (hERG) potassium channel (human, UniProt Q12809); assay: primary screen, population patch clamp on CHO cells stably expressing hERG
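Further: peak tail current of the secondary pulse compared with the same well before compound.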

human ether-à-go-go-related gene (hERG) potassium channel, sequence (Q12809 whole entry, looked up): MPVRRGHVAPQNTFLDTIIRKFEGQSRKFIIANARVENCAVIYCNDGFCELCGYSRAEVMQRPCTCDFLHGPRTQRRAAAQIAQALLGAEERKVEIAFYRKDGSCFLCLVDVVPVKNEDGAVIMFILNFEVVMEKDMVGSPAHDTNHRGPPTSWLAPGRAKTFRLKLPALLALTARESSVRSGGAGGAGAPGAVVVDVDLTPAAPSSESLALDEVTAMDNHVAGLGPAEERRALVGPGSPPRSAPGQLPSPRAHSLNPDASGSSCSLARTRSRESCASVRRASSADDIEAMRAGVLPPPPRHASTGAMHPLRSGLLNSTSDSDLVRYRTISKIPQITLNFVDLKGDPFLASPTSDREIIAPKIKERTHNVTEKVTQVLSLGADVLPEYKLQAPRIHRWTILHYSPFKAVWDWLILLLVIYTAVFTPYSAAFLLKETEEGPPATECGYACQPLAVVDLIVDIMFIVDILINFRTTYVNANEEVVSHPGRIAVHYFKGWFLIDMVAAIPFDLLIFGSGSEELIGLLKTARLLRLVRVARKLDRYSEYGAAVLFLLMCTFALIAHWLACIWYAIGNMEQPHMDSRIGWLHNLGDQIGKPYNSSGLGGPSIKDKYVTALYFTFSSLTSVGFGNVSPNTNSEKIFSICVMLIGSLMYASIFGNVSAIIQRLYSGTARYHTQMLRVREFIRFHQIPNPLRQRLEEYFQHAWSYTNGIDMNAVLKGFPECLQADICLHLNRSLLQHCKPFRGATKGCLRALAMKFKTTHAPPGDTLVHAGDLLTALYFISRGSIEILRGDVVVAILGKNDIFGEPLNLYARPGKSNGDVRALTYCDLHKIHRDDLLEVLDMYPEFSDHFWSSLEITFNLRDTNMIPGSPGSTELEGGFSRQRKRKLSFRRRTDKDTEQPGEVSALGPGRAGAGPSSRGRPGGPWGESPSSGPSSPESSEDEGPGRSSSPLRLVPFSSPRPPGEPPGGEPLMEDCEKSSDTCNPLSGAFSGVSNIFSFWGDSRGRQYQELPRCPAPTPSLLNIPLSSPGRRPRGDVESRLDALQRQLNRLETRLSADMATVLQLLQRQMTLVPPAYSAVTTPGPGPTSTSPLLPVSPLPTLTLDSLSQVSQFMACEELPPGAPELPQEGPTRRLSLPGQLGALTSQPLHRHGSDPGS

| Compound | hERG current change (%, negative = inhibition) at 10uM [%] |
| --- | --- |
| Cc1c(C(=O)N2CCN(c3ccccc3)CC2)sc2ncnc(N3CCN(c4ccccn4)CC3)c12 | -35.1 |
| Cc1cc(Br)cc(C)c1OCC(=O)NNC(=O)c1cccs1 | -9.81 |
| COc1ccc2[nH]c(C(=O)N/N=C/c3cc(OC)c(OC)c(OC)c3)cc2c1 | 7.49 |
| O=S(=O)(NCc1ccncc1)c1ccccc1 | 7.56 |
| CN(c1ccc(C(=O)NCCSCc2c(F)cccc2Cl)cc1)S(C)(=O)=O | 1.6 |
| O=S(=O)(Cc1ccccc1)N=Nc1c(O)[nH]c2ccc(Br)cc12 | 9.9 |
| Cn1c(=S)[nH]c2[nH]c(=O)cnc2c1=O | -2.04 |
| Cc1cc(S(=O)(=O)N2CCCCC2)ccc1OCC(=O)N1CCOCC1 | -2.34 |
| CN(CC(=O)Nc1cccc2ccccc12)C(=O)c1cccc(S(=O)(=O)N(C)C)c1 | -7.71 |
| CCOC(=O)C1CCN(C(=O)c2ccc3nc(-c4ccc(OC)cc4)c(-c4ccc(OC)cc4)nc3c2)CC1 | 3.82 |
| CS(=O)(=O)c1ccc2nc(NC(=O)Oc3ccccc3)sc2c1 | 12.5 |
| COc1cccc(CC(=O)OCC(=O)NC2CCCC2)c1 | 4.66 |
| COC(=O)Nc1nc2ccc(C(=O)c3ccc(F)cc3)cc2[nH]1 | 5.63 |
| COc1ccc(CNC(=O)c2ccccc2SCC(=O)N2CCCC2)cc1OC | 7.71 |
| CC(=O)c1ccc(NC(=O)CN(c2c(C)cccc2C)S(C)(=O)=O)cc1 | 15.5 |
| CCOc1ccc(S(=O)(=O)N2c3ccccc3CC2C)cc1 (stereo not shown) | 6.81 |
| Cc1ccc(OCC(=O)NCc2ccccn2)c(Br)c1 | -3.9 |
| CCOC(=O)N1CCN(C(=O)COc2ccc3c(c2)C(=O)CC(C)(C)O3)CC1 | 17.6 |
| Cc1cc(Br)ccc1SCC(=O)NNC(=O)c1ccco1 | -18.1 |
| O=C(Nc1ccccc1)C1=C[C@@H](C2CC2)C[C@@H](OCc2ccc(CO)cc2)O1 | -20.9 |
| CC(=O)N1C2CCCCC2S[C@H]2CCCCC21 (stereo partly shown) | 18.9 |
| CSc1nc(N2CCN(c3ccccc3Cl)CC2)c2ccccc2n1 | 12.1 |

| Compound | hERG current change (%, negative = inhibition) at 10uM [%] |
| --- | --- |
| O=C(CN1CCOCC1)NCc1ccccc1 | 17.4 |
| COc1cccc(-c2nc(CS(=O)CC(=O)NCc3ccccc3)c(C)o2)c1 (stereo not shown) | -6.07 |
| CC(C)S(=O)(=O)CC(=O)c1ccc(Cl)cc1 | 15 |
| COc1ccc(-c2cc(C(F)(F)F)nc(SCCC(=O)N3CCOCC3)n2)cc1 | -1.4 |
| Nc1ccc(C(=O)NCCCSc2ccccc2)cc1[N+](=O)[O-] | 2.99 |
| CCN1CCN(CC(O)COCc2ccccc2)CC1.Cl (stereo not shown) | 29 |
| Cc1oc2c(O)c(O)ccc2c(=O)c1-c1cnn(-c2ccccc2)c1 | -20.7 |
| CCc1nnc(NC=C2C(=O)OC(C)(C)OC2=O)s1 | 2.69 |
| O=C(CCc1nc(-c2ccc(Cl)cc2)no1)NCc1ccccc1CN1CCOCC1 | -65.5 |
| CCCCC[C@H]1CN(CCc2ccccc2)C(=O)[C@@H]1CC(=O)NCc1ccc(OC)cc1 | -61.8 |
| CC(C)Sc1nc2ccsc2c(=O)[nH]1 | 4.2 |
| COc1cccc(C(=O)N2CCCC(Nc3ccc(C)c(C)c3)C2)c1 (stereo not shown) | -0.188 |
| C/C(CCc1ccc2c(c1)OCO2)=N\N=C1\NC(=O)CC(C(=O)Nc2ccccc2)S1 (stereo not shown) | -6.9 |
| Clc1ccc(-c2nnc(SCc3cn4ccsc4n3)n2CC2CCCO2)cc1 (stereo not shown) | -29.2 |
| CCCCN1C=C(C(=O)OC)C(c2ccccc2Cl)C(C(=O)OC)=C1 | -6.65 |
| Cc1ccccc1C(=O)Oc1ccccc1N1C(=O)C2CC=CCC2C1=O (stereo not shown) | 0.103 |
| COc1ccc(-c2nnn(Cc3ccccc3)n2)cc1OC | 2.97 |
| Cc1ccc(C2CN(C)CC2C(=O)c2ccc(F)cc2)cc1 (stereo not shown) | -53.2 |
| COc1cc2c(cc1OC)CN(C(=O)c1ccc3nc[nH]c3c1)CC2 | -1.39 |
| CCOC(=O)N1C2=NC(C(=O)OC)=C(C(=O)OC)[C@@H]3Nc4ccccc4[C@]23C[C@H]1C(=O)OC | -6.95 |
| COC(=O)c1[nH]c2c(c1C)C(=O)CC(c1cccc(OC)c1)C2 (stereo not shown) | -7.83 |
| COc1ccc(/C=C/c2cc[n+](C(=O)Cc3ccccc3)cc2)cc1.[Cl-] | -51.2 |

| Compound | hERG current change (%, negative = inhibition) at 10uM [%] |
| --- | --- |
| CCOC(=O)c1cn2nc(Oc3ccc(OC)cc3)ccc2n1 | 4.29 |
| Cc1c(NC(=S)N/N=C/c2ccc(Br)cc2)c(=O)n(-c2ccccc2)n1C | 12 |
| COc1ccc2c(c1)C(=O)Cc1ccccc1O2 | 0.762 |
| CCCCN(C1CCS(=O)(=O)C1)S(=O)(=O)c1ccc(C(C)C)cc1 (stereo not shown) | 12.1 |
| COc1cccc(/C=N/NC(N)=S)c1OS(=O)(=O)c1ccccc1 | 9.82 |
| CCC(CCC(=O)Nc1cccc([N+](=O)[O-])c1)C(=O)O (stereo not shown) | 20.2 |
| Cc1cc(C)c(OCC(=O)OCCNC(=O)c2cccnc2)c(C)c1.Cl | -17 |
| COc1ccc(C)cc1Nc1c2c(nc3ccccc13)CCC2 | -56.7 |
| CCN(CC(=O)Nc1c(F)cccc1F)C(=O)C1CCN(C(=O)Nc2ccccc2)CC1 | 1.32 |
| CSc1ccc(NC(=O)C(C)N2CCN(C)CC2)cc1.O=C(O)C(=O)O (stereo not shown) | -24 |
| CCCCNC(=O)[C@H]1C[C@H]1[C@@H](O)[C@H](CO)NC(=O)[C@H](COCc1ccccc1)NC(=O)OC(C)(C)C | 21.5 |
| CCOc1cc(C#N)ccc1OCC(=O)N1CCN(C(=O)c2cccs2)CC1 | -67.7 |
| Cn1nc(C(=O)Nc2ccc(S(=O)(=O)N3CCCCC3)cc2)ccc1=O | -13.3 |
| CC(CN1CCOCC1)OC(=O)Cc1ccc(Cl)cc1.Cl (stereo not shown) | -8.7 |
| COC(=O)c1ccc(NC(=O)CSc2nc3[nH]ncc3c(=O)[nH]2)cc1 | 14.3 |
| O=C(CN(C(=O)Cn1nnc(-c2cccs2)n1)c1ccc2c(c1)OCCO2)NC1CCCCC1 | -13.2 |
| COc1cc(C(CC(=O)Nc2ccc(Cl)cn2)N2Cc3ccccc3C2=O)cc(OC)c1OC (stereo not shown) | -68.1 |
| O=C(O)CC1Sc2nc3ccccc3n2C1=O (stereo not shown) | 8.05 |
| CN1CCN(CCNC(=O)c2ccc3nc(-c4ccc(F)cc4)c(-c4ccc(F)cc4)nc3c2)CC1 | -50.6 |
| N#Cc1nc(Cc2cccc3ccccc23)oc1N1CCCCC1 | -0.431 |
| CCOC(=O)Cn1nc(C)n(-c2ccc(C(C)(C)C)cc2)c1=O | -8.38 |
| Cc1nnc(SCC(=O)Nc2ccccc2)c2ccccc12 | 7.89 |

| Compound | hERG current change (%, negative = inhibition) at 10uM [%] |
| --- | --- |
| Clc1cccc(Nc2nc(-c3ccncc3)cs2)c1 | 17.5 |
| O=C1Nc2ccccc2N(O)N1c1cc(-c2ccccc2Cl)no1 | 6.26 |
| CC1=C(C(=O)OC(C)C)C(c2ccsc2)NC(=O)N1C (stereo not shown) | 9.03 |
| O=C(c1ccc(F)cc1)N1CCCC(C(=O)N2CCCCC2)C1 (stereo not shown) | 16.5 |
| COc1ccc(CCNC(=S)NNC(=O)c2c(Br)c(C)nn2C)cc1OC | 11.3 |
| O=C(O)c1ccc2cccc(O)c2n1 | 20.7 |
| O=C(NCCN1CCOCC1)c1cc([N+](=O)[O-])cc([N+](=O)[O-])c1 | 18 |
| CC(C)CCNC(=O)COc1ccc2c3c(c(=O)oc2c1)CCC3 | 4.09 |
| N#CC1(NC(=O)COc2ccc3oc4ccccc4c3c2)CCCCC1 | 12.1 |
| O=C(CCCN1C(=O)/C(=C/c2cccs2)SC1=S)Nc1ccccc1O | 15.3 |
| CCn1cc(CN2CCC(n3nccc3NC(=O)CCCc3ccccc3)CC2)c(C)n1 | -28.4 |
| CCOc1ccccc1C1CC(=O)Nc2c1c(=O)n(C)c(=O)n2C (stereo not shown) | 7.34 |
| COc1ccccc1NC(=O)CSc1nnc(CC(=O)Nc2ccccc2F)n1C | 11.4 |
| CC(C)(Oc1ccc(Cl)cc1)C(=O)Nc1ccc2oc(-c3ccncc3)nc2c1 | 4.89 |
| CCC(CO)NCc1ccc(-c2ccccc2)cc1.Cl (stereo not shown) | -31.8 |
| Cc1ccc(NC(=O)Cn2c(=S)[nH]c3ccccc32)cc1 | 19.7 |
| Cc1ccc(S(=O)(=O)Nc2nc3ccccc3nc2NCC2CCCO2)cc1C (stereo not shown) | -32.5 |
| O=C(NNC(=O)c1ccc(-n2cncn2)c([N+](=O)[O-])c1)c1cccc(Cl)c1 | -26.3 |
| COc1ccc(NC(=O)CC(Cc2ccccc2)C(=O)O)cc1 (stereo not shown) | 5.21 |
| C[C@H](NC(=O)N1CCn2c1nc1ccccc12)C(=O)NCc1ccc(F)cc1 | -29.6 |
| CCOC(=O)c1c(CN2CCCCC2)n(C)c2cc(Br)c(O)c(CN(C)C)c12 | -19 |
| O=C(O)C(=O)O.O=C(c1ccco1)N1CCN(Cc2cccc3ccccc23)CC1 | -24.3 |
